Experimental data taken from the supplement of paper PMC10126150.
Sequences with one replicate were seen in a single cluster, so their values are uncertain.

tested on: ATP; assay: switch fluorescence ratio, 500 uM ATP over buffer (Cy3 cluster intensity, sum of 5 cycles each) (fold (ratio)); higher = stronger signal-on switching upon ATP binding; sequences stand for … in TCGTCGGCAGCGTCAGATGTGTATAAGAGACAGTTTTTTTTTTTTTTTTTTTTTTTTT…TC; details: aptamer strand: ATP DNA aptamer (quencher-CACCTGGGGGAGTATTGCGGAGGAAGG + anchor), 100 nM annealed; ATP concentration: 500 uM; one replicate
Summary of the method: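 Exposure to 500 uM ATP lasted 15 min at 22 °C before imaging, and a selection-buffer image was taken beforehand, for Cy3-labelled switching-strand clusters on a modified Illumina MiSeq flow-cell annealed to 100 nM quencher-labelled ATP aptamer. Five buffer/ATP cycles were run with NaOH stripping and re-annealing between them. The fluorescence ratio per cluster is summed target-cycle over summed buffer-cycle Cy3 intensity, averaged per switch-domain sequence. Clusters outside 100-1000 RFU were excluded.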

| Sequence | switch fluorescence ratio |
| --- | --- |
| TAGGCGCCAG | 0.972 |
| ATTGAAAACT | 1.04 |
| CAATTTCCTA | 0.984 |
| TTAAGTACT | 1.19 |
| ACAGAGAAGT | 1.01 |
| AGCGGTGTGG | 1 |
| CTATTTGTG | 0.986 |
| CAGCGGTCCA | 1.04 |
| CCACGTGTG | 1.05 |
| GGCCACGCGA | 1.13 |
| AGACAGCCCC | 1.05 |
| ACATCGTTAT | 0.997 |
| TATTAAGATG | 1.07 |
| AAGGATTCGT | 0.97 |
| CTTACAT | 0.971 |
| AGGTCTGTCG | 1.02 |
| TTACTTCTGT | 1 |
| CGGTGCTAAC | 1.1 |
| TGTTACTGCT | 0.969 |
| GTCAGCTTTA | 1.02 |
| GGACAGTAGC | 1.08 |
| TTTTCACA | 0.941 |

| Sequence | switch fluorescence ratio |
| --- | --- |
| CCAAAACGGA | 1.01 |
| GGAGGCGTTA | 1.01 |
| CGGCCACGAC | 1.04 |
| AAGGAGGAGT | 1.24 |
| GCCAGTCGGA | 0.984 |
| TACAGATATG | 1 |
| ATGTTCTCGG | 0.986 |
| GCCCCTTCGG | 0.985 |
| CGGTAGGTTG | 1.07 |
| TTCTTTTTCC | 1.05 |
| TTAGCAGGAC | 4.16 |
| CCCAGATTTA | 1.02 |
| TTGGTCACAG | 0.985 |
| GTATCTAGGA | 0.996 |
| AACGGTACAC | 1.49 |
| TCGTACAAAC | 1.3 |
| ACGGGGCGGA | 1 |
| CAGAAGTCG | 0.988 |
| AGATTCGGCT | 0.991 |
| CGTATCACAT | 1.01 |
| TGTAGGTAAG | 1.01 |
| ACTGAGTGCA | 1.08 |

| Sequence | switch fluorescence ratio |
| --- | --- |
| TTCGCCGTGG | 0.974 |
| GCACTATCAT | 0.972 |
| GATGAAACCA | 1.05 |
| ATCGATAGAT | 0.974 |
| ATATGGAGGA | 1.01 |
| TAGATGTGCT | 0.968 |
| ATTGAGTTCG | 0.969 |
| AGCCCCAGTC | 1.09 |
| GCGTCCGAAG | 1.32 |
| CGCGTTCCT | 1.09 |
| GGGATACCGG | 1.04 |
| AGGCTGTAC | 1.47 |
| ATCCCGGCTC | 1.02 |
| CCATTCATAT | 1.03 |
| CACTTCAACA | 1.08 |
| TAAGGATAGT | 1.02 |
| GGATTAAGAT | 0.988 |
| AATGCACCTG | 1.06 |
| GTTGAGAGGG | 0.969 |
| GATTCGTGCC | 0.991 |
| TCTTAGCTCA | 1.11 |
| AGATACGTTG | 1.04 |

| Sequence | switch fluorescence ratio |
| --- | --- |
| TATCGTTGCA | 0.981 |
| GACATTATAG | 0.95 |
| GGTTCGACCC | 1.09 |
| CACCAAGCCT | 1.14 |
| GCCGGGGGAG | 1 |
| TCCTTCGTAT | 3.76 |
| AGCTAGCGAG | 1.03 |
| CAGCATCCGG | 1.04 |
| CTTCCGAGGA | 1.57 |
| AATCCCCAAC | 1.05 |
| TATGGACGAG | 0.959 |
| ACCCAGTCAA | 1.1 |
| TAAGCAATTG | 0.994 |
| TTCTTTTCGA | 1.01 |
| CTCGGCGGTG | 1.01 |
| CCACCCTCCA | 1.22 |
| TTAACTGCA | 1.03 |
| GCGTGCGGTG | 0.98 |
| TAAGCGGGAT | 0.972 |
